Out of some 310,000 compounds screened, about 14,000 (4.5%) showed an effect of 50% or more. Effects have a minus sign here. This is one part of the list.

The values that follow come from publication PMC4336329 (PLoS ONE, 2015).
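Note: peak tail current of the secondary pulse compared with the same well before compound.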

Sequence of human ether-à-go-go-related gene (hERG) potassium channel (Q12809 whole entry, looked up): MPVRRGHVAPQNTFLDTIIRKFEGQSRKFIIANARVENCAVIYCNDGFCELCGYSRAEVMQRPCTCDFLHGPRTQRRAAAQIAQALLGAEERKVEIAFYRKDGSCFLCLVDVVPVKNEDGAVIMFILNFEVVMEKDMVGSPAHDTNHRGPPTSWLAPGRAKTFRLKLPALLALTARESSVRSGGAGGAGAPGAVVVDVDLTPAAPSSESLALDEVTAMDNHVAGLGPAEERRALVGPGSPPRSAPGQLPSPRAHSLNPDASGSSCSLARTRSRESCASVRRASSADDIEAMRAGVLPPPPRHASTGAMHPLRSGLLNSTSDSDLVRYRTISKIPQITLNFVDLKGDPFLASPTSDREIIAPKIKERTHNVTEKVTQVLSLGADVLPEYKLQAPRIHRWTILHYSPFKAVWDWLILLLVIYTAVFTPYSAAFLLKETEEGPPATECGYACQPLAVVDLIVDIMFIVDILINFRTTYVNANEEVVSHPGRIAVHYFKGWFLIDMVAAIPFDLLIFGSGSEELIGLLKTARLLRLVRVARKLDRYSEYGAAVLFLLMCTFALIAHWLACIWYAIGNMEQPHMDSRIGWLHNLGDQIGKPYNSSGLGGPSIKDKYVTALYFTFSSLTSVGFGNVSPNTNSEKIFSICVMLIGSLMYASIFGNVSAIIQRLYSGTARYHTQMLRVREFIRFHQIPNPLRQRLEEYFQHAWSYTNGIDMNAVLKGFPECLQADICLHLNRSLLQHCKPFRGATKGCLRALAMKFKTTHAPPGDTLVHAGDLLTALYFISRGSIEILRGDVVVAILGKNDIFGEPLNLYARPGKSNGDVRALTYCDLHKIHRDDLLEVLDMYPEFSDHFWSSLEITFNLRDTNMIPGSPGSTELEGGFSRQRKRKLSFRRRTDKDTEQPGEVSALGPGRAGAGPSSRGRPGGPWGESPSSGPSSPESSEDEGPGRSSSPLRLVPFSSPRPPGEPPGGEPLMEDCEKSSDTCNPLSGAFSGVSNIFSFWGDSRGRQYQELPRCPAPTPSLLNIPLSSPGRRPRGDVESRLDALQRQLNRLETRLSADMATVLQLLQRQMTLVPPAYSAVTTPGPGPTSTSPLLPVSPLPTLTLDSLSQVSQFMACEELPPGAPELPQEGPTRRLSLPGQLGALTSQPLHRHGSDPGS

The assay addresses human ether-à-go-go-related gene (hERG) potassium channel (human, UniProt Q12809). Put plainly: primary screen, population patch clamp on CHO cells stably expressing hERG.
`Cc1ccccc1NC(=O)c1ccc(S(=O)(=O)N2CCCC2)cc1`: the “hERG current change (%, negative = inhibition) at 10uM” value is on record as 10.2%.
Under `CCN(CCn1cccn1)C(=O)CC1C(=O)NCCN1CCc1ccccc1` (centres unmarked) stands -1.17%; under `COc1ccccc1Nc1nnc(Cc2ccccc2)c(=O)[nH]1`, 22.9%; under `Cc1cc(C)cc(C(=O)NCCC(=O)N2CCC3(CC2)NCCc2[nH]cnc23)c1`, 24.4%.
The value for `COc1ccc(NC(=O)CCN=C2NS(=O)(=O)c3ccccc32)cc1S(=O)(=O)N(C)C` was -0.187%; that for `CCCOc1ccc2oc(=O)c3c(c2c1)CCCN3C(=O)CN1CCN(C(=O)c2ccco2)CC1` was -65.3%.
Under `CCCCCn1c(=O)[nH]c2cc(C(=O)NCCN3CCC(C)CC3)ccc2c1=O` stands -30.2%.
For `Cc1cc(/C=N/n2cnnc2)c(C)n1-c1cccc(C(=O)O)c1`, the “hERG current change (%, negative = inhibition) at 10uM” value is 5.55%.
Under `CCC(CO)NCc1ccc2c(c1)n(C)c(=O)n2C.Cl` (centres unmarked) stands 17.4%.
The value for `CCN(c1ccccc1)S(=O)(=O)c1ccc(NCC2COc3ccccc3O2)nc1` (centres unmarked) was -2.4%.
Turning to `COc1ccc(/C=C(\NC(=O)c2ccccc2)C(=O)NNC(=O)CCN2CCOCC2)cc1`, the “hERG current change (%, negative = inhibition) at 10uM” value is recorded as 8.16%.
The value for `CC(OC(=O)c1cc[n+]([O-])cc1)C(=O)NCc1ccccc1` (centres unmarked) was 11%; that for `CN(C)C(=O)CNC(=O)CN1C(=O)NC2(CCCc3sccc32)C1=O` (centres unmarked) was 10.7%; that for `C1=C(CCNc2nnnn2-c2ccccc2)CCCC1` was -1.63%.
The value for `CCC(=O)N(Cc1cc2ccccc2[nH]c1=O)c1ccc(OC)cc1` was -11.9%.
Under `O=C(Nc1ccc(F)cc1)Nc1ccc(NC(=O)c2ccccc2O)cc1` stands 8.33%; under `O=C1CC(c2ccccc2)Cc2nc(N3CCc4ccccc4C3)ncc21` (centres unmarked), -2.75%; under `O=C(NC1CONC1=O)OCC(Cl)(Cl)Cl` (centres unmarked), 8.91%.
For the compound `CN(CC(=O)Nc1nc2ccccc2s1)S(=O)(=O)c1ccc(Br)cc1`, the “hERG current change (%, negative = inhibition) at 10uM” value is recorded as -7.29%.
Under `COc1ccc(NC(=O)c2c(-c3c(Cl)cccc3Cl)noc2C)cn1` stands 4.96%.
Consider `Cc1cc(C)c(S(=O)(=O)N(C)CC(=O)NCc2ccncc2)c(C)c1`, for which the “hERG current change (%, negative = inhibition) at 10uM” value is listed as -11.8%.
In the case of `CC(=O)c1cn(C)c(=O)[nH]c1=O`, the “hERG current change (%, negative = inhibition) at 10uM” value stood at 26.7%.
The value for `Cc1ccc(C(=O)Nc2ccc(-c3csc(C)n3)cc2)cc1` was 17.3%.
The value for `COc1ccc(S(=O)(=O)Nc2ccccc2N2CCOCC2)cc1OC` was 7.95%.
The value for `CCN(CC)CCNC(=O)C1CCN(S(=O)(=O)N2CCCCC2)CC1` was -6.62%; that for `C=CCNC(=O)NC(=O)COC(=O)/C(C#N)=C/c1cc(C)n(CC(C)C)c1C` was -4.06%; that for `Cc1nnc(SCc2nc3scc(-c4ccccc4)c3c(=O)[nH]2)s1` was 12.7%.
`CCOC(=O)Cc1csc(NC(=O)Cc2ccc(Cl)cc2)n1`: the “hERG current change (%, negative = inhibition) at 10uM” value was -15.1%.
Take `O=C(COC(=O)c1ccccc1)NCCC1=CCCCC1`: the “hERG current change (%, negative = inhibition) at 10uM” value turned out to be 20.4%.
The value for `COc1ccc2[nH]cc(CCN3C(=O)c4ccc(C(=O)O)cc4C3=O)c2c1` was 12.4%; that for `CCN1C(=O)[C@H]2[C@@H](c3ccc(C)cc3)N3C(=O)N(c4ccccc4)C(=O)[C@@]3(Cc3ccc(Cl)cc3)[C@H]2C1=O` was 11.4%; that for `CN1CCN(C(=O)CSc2nc(-c3ccncc3)ccc2C#N)CC1` was -8.11%.
The value for `O=C(CSc1ncccn1)NC(=O)NCc1ccccc1` was 18.7%; that for `O=C(NCCc1ccccc1)C1CCCN(S(=O)(=O)c2cccnc2)C1` (centres unmarked) was 0.403%; that for `Cc1cccc(NC(=O)c2ccc3c(c2)CCN3S(C)(=O)=O)c1C` was 2.45%.
Under `CCc1nnc(NC(=O)CSc2nnc(-c3cc4ccccc4cc3O)n2CCOC)s1` stands -25.6%.
For `Cc1cccc(Cc2c(C)nc3c(C(=O)NCc4ccco4)cnn3c2C)c1`, the “hERG current change (%, negative = inhibition) at 10uM” value is -30.8%.
The value for `CCOC(=O)N1CCN(Cc2cn[nH]c2-c2ccc(-c3ccccc3)cc2)CC1` was -54.8%; that for `O=C(CNC(=O)c1ccccc1F)Nc1ccccc1C(F)(F)F` was 13.8%; that for `COC(=O)C1=C(C)N(C)C(=O)NC1c1c(O)ccc2ccccc12` (centres unmarked) was 0.915%.
The value for `Cc1noc(C)c1S(=O)(=O)N1CCC(C(=O)NC2CCCc3ccccc32)CC1` (centres unmarked) was 7.87%.
For `O=C(NCCCN1CCCC1=O)c1ccc(CNS(=O)(=O)c2ccc(F)cc2)cc1`, the “hERG current change (%, negative = inhibition) at 10uM” value is reported as -3.18%.
Consider `Cc1cc(NCCCN2CCOCC2)n2c(nc3ccccc32)c1C#N`, for which the “hERG current change (%, negative = inhibition) at 10uM” value is -23.3%.
As to `CCn1c(SCC(=O)Nc2nncs2)nnc1C(C)NC(=O)c1ccccc1Br` (centres unmarked), the “hERG current change (%, negative = inhibition) at 10uM” value is given as 19%.
